Consider 110 sequences from the supplement of paper PMC3334620.

The full ranking holds about 33,000 sequences; the median of “E-score (-0.5 to 0.5)” is about -0.013, and the highest 2% start at about 0.3. The list shows a part of the results.

For this assay, the target named is T1, Msn1 (UniProt P22148).
T1 sequence: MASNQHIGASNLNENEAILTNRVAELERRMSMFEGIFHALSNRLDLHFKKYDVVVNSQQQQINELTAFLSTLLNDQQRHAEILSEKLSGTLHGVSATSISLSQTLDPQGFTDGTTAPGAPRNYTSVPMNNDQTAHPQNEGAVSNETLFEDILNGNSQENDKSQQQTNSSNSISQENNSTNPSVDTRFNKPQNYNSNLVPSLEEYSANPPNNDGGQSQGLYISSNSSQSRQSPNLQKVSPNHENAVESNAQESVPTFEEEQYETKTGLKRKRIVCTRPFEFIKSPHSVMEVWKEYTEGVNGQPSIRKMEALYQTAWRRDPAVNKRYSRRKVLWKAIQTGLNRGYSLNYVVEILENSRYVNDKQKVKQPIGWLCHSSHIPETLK
Kind of assay: PBM E-score (8-mer binding enrichment) (E-score (-0.5 to 0.5)); higher = stronger / more preferred TF binding; most listed sequences are background and not binding sites. The conditions noted are these: protein concentration: 200 nM; construct: GST-full length. The method, boiled down:
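GST-tagged yeast TFs (full-length or DNA-binding domain) were made by PURExpress in vitro transcription/translation and applied at about 100-200 nM to universal all-10-mer Agilent arrays. The arrays were made double-stranded by primer extension, on fresh or once-stripped slides. Bound protein was detected with fluorescent anti-GST, and scans were normalised with masliner. Each ungapped eight-base word, pooled with its reverse complement, received an E-score (modified Wilcoxon-Mann-Whitney statistic) from the Universal PBM Analysis Suite.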
With GTGCGCGA, the “PBM E-score” value was -0.106.
As to CAGTTCAC, the “PBM E-score” value was -0.0495.
Take AGAGGCAC: the “PBM E-score” value is -0.207.
In the case of ATATTGTG, the “PBM E-score” value is -0.00984.
With ATTAACAG, the “PBM E-score” value was 0.0865.
For TTAGAAAA, the “PBM E-score” value amounted to 0.109.
The same measure for ACTTTTCG: 0.256; for CTGAGCTA: -0.193; for TAACTGAA: -0.0416.
Take GCAGTGCA: the “PBM E-score” value was -0.19.
For the sequence ACCACGGA, the “PBM E-score” value is -0.192.
As for CACTTGTA, the “PBM E-score” value came out at 0.157.
In the case of CCGGACCA, the “PBM E-score” value stood at 0.0137.
For the sequence ACAAGCCC, the “PBM E-score” value was -0.149.
For the sequence ACTTGCGA, the “PBM E-score” value was determined as 0.177.
For AAGTATAT, the “PBM E-score” value amounted to 0.209.
As to ATGGCGTC, the “PBM E-score” value was -0.103.
As to AAACGTGC, the “PBM E-score” value is -0.178.
The same measure for CGAATTAA: 0.0787; for AGCTTCCG: -0.0235.
Regarding CCATGTCG, the “PBM E-score” value was determined as 0.239.
Take CCCATAAC: the “PBM E-score” value was -0.0254.
The result for AGTTTATA reads 0.235; that for ATCAGTAG, -4e-05.
The same measure for ATCCGACC: -0.00924; for AGGTAAAG: 0.122.
Turning to AATTACTG, the “PBM E-score” value was -0.0343.
On to ACTGCGCA, for which the “PBM E-score” value came to 0.162.
The result for CATGGACC reads -0.0789; that for ACAGTTGA, 0.0741.
Consider ACCCCATC, for which the “PBM E-score” value is -0.269.
Turning to CGCTAACA, the “PBM E-score” value was determined as 0.00832.
ACATATGC: the “PBM E-score” value is -0.0219.
The same measure for CGAGTATA: 0.139.
For the sequence TCTTGCAA, the “PBM E-score” value is 0.0285.
In the case of ATATTTTA, the “PBM E-score” value was determined as 0.225.
Consider CCCAGGGA, for which the “PBM E-score” value is -0.24.
On to TGGAGTAA, for which the “PBM E-score” value is -0.0366.
As to CGAAATCC, the “PBM E-score” value was -0.0159.
Consider AACAGCCT, for which the “PBM E-score” value is -0.0797.
The same measure for ATCCTGAC: 0.0473; for GCCACCGA: -0.211; for AGACCGAC: 0.0898.
ACGTTATC: the “PBM E-score” value was -0.112.
The result for AGCACTGA reads 0.00326; that for GCTTGTCC, 0.454; that for ACCAGCCT, -0.239.
As to CCAGCGAG, the “PBM E-score” value is -0.225.
The same measure for CCCGCTTC: -0.225; for ATCAATTC: -0.026.
As to GTTAAAAA, the “PBM E-score” value stood at 0.175.
The same measure for CTTGGAAA: 0.024; for CACCGGGC: -0.172; for AACCCACT: 0.0682.
As for GGGGGTGA, the “PBM E-score” value was -0.354.
The same measure for AGGAGGAT: -0.174; for AAGCCTAC: -0.0603; for TGTCCAAA: 0.473.
Consider AAGACCTT, for which the “PBM E-score” value amounted to 0.00647.
The result for GTGTCCGA reads 0.37.
The result for ATTCCGTC reads 0.0422; that for GTTGCGCA, -0.0202.
Consider AGCAAGCG, for which the “PBM E-score” value is -0.0466.
As to CCTTGGAC, the “PBM E-score” value turned out to be 0.185.
The same measure for GGGGACAC: 0.28; for CTTAGTGC: 0.111; for CCATGTCA: 0.164.
The result for GGCAGCCC reads -0.3; that for GAAGGCAC, -0.0435; that for CCTGAACC, -0.0625.
On to GTATACAC, for which the “PBM E-score” value was -0.00867.
Regarding ACAGGCAT, the “PBM E-score” value is -0.0412.
With AGGATCGA, the “PBM E-score” value was -0.0232.
Take AGCCGGAG: the “PBM E-score” value came out at 0.0715.
For the sequence ATCCTTTC, the “PBM E-score” value is -0.0316.
The same measure for GGCCTAAA: -0.0755; for ACTGTCGA: -0.106.
The same measure for GACGTCGA: 0.0985; for ACAGACAG: 0.222.
Regarding ACCAGTGG, the “PBM E-score” value was -0.23.
For GGCGGGGA, the “PBM E-score” value is 0.0388.
For ACAGTGGT, the “PBM E-score” value is -0.123.
Regarding CCGATCTA, the “PBM E-score” value was -0.00864.
CGAAACGC: the “PBM E-score” value is -0.00657.
In the case of GAATGCCA, the “PBM E-score” value is -0.0809.
As for AGTAGCGG, the “PBM E-score” value was -0.0435.
With CGGTTACC, the “PBM E-score” value was -0.195.
In the case of GCGTCAAA, the “PBM E-score” value was 0.0868.
Turning to ACACGCGT, the “PBM E-score” value was 0.21.
With AGTTGCTC, the “PBM E-score” value was -0.154.
The same measure for ATATTAAG: 0.234; for GCAACGCC: -0.0816; for AAATGACC: 0.0678.
In the case of AAAACTTT, the “PBM E-score” value was -0.0847.
In the case of CACTGGTC, the “PBM E-score” value was -0.0999.
Take AACGGCCA: the “PBM E-score” value amounted to 0.0469.
CACAGCCA: the “PBM E-score” value is -0.168.
On to AGCTGGGA, for which the “PBM E-score” value stood at 0.0709.
The same measure for GAGTACCC: -0.232; for CGCCCAGC: -0.219; for AGGCCGTC: -0.229.
With AGCCATCC, the “PBM E-score” value is -0.277.
Regarding CTGAACAC, the “PBM E-score” value is 0.0459.
The same measure for GCGTAGGA: -0.253.
AGGTATAG: the “PBM E-score” value is -0.0758.
With CTACCTGC, the “PBM E-score” value was -0.0941.
Regarding CACGACCA, the “PBM E-score” value was -0.00647.
With ATCCGAGA, the “PBM E-score” value amounted to 0.187.
In the case of CCGCTTAC, the “PBM E-score” value is -0.0448.
On to GAACATGA, for which the “PBM E-score” value is -0.0143.
